Source: PubChem BioAssay AID743279 (National Center for Advancing Translational Sciences (NCATS), 2014)
The whole screen tested about 360,000 compounds, of which about 17,000 (4.7%) were called active. The inconclusive results got no clear call from the source; some entries with a clear call stand among them for comparison. Rule as the data show it: active = activity change below about -50%; inconclusive = mostly about -30% to -49%; inactive = weaker than that.

Test: qHTS for Inhibitors of Inflammasome Signaling: IL-1-beta AlphaLISA Primary Screen
Conditions: THP-1 LPS/ATP IL-1B secretion, 16 h; at 57.5 µM, hits give low values
Method in brief: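 Secreted IL-1B measured by AlphaLISA bead assay after 16 h compound exposure of THP-1 cells; compounds (final up to 57.5 uM) added 1 h before LPS (250 ng/mL) and ATP (1.25 mM) stimulation; lower signal means less secretion.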
% is scaled to controls: 0 for no effect and ±100 for the full control effect.

**Q.** With `COc1ccc(C)cc1NC(=O)Nc1ccc2c(c1)CCC2` as the molecule, how does the activity change read?
**A.** Its activity change is inconclusive: -38.4%.

**Q.** Which activity change does the source give for `CN(C(=O)c1ccc(-c2ccccc2)cc1)C1CCCCC1` here?
**A.** The activity change was inconclusive: -33.4%.

**Q.** Which activity change does the source give for `O=C(Nc1ccccc1Cl)c1cc(S(=O)(=O)N2CCC3(CC2)OCCO3)ccc1F` here?
**A.** The activity change was inactive: -13.1%.

**Q.** With `COC(=O)c1ccccc1NC(=O)c1ccccc1OC` as the molecule, how does the activity change read?
**A.** Its activity change is inactive: 0.266%.

**Q.** With `COc1ccccc1N1CCN(C(=O)/C=C/c2c(Cl)nc3ccccn23)CC1` as the molecule, how does the activity change read?
**A.** Its activity change is active: -60.5%.

**Q.** With `COc1ccc(NC(=S)N(CCCN2CCC(C)CC2)Cc2cccs2)cc1` as the molecule, how does the activity change read?
**A.** Its activity change is active: -51.3%.

**Q.** With `Cc1ccc(C)c(NC(=O)C2CC3CCC2C3)c1` (stereo unspecified) as the molecule, how does the activity change read?
**A.** Its activity change is inconclusive: -33.6%.

**Q.** For `CCc1cccc(NC(=O)c2cnn(-c3ccccc3)c2C)c1`, which activity change is on record?
**A.** The activity change was inconclusive: -45.6%.

**Q.** For `Cc1ccc(NC(=O)CCNS(=O)(=O)c2ccc(Br)s2)cc1`, which activity change is on record?
**A.** The activity change was inconclusive: -46.1%.

**Q.** For `CC(NC(=O)c1cccc(N(C)C)c1)c1ccc(-n2ccnc2)cc1` (stereo unspecified), which activity change is on record?
**A.** The activity change was “inactive”.

**Q.** Which activity change does the source give for `Cc1ccc(NC(=O)COC(=O)C2CC3C=CC2C3)cc1S(=O)(=O)N1CCCCC1` (stereo unspecified) here?
**A.** The activity change was inconclusive: -31.1%.

**Q.** Which activity change does the source give for `O=C(Nc1ccc2[nH]ncc2c1)c1ccccc1Cl` here?
**A.** Its activity change is inconclusive: -33.6%.

**Q.** With `Cc1ccc(S(=O)(=O)/N=C(/Nc2cccc3ccccc23)c2ccc(F)cc2)cc1` as the molecule, how does the activity change read?
**A.** Its activity change is inconclusive: -38%.

**Q.** Which activity change does the source give for `CCn1c(=O)c2cc(C(=O)Nc3cc(C)on3)sc2c2ccccc21` here?
**A.** Its activity change is inconclusive: -31.4%.

**Q.** With `Cc1nc2ccccc2c(=O)n1CCc1ccccc1` as the molecule, how does the activity change read?
**A.** Its activity change is inactive: 38%.

**Q.** For `COc1ccc(-c2oc(=O)c3cc(OC)c(OC)cc3c2C#C[C@]2(O)CC[C@H]3[C@@H]4CCc5cc(OC)ccc5[C@H]4CC[C@@]32C)cc1`, which activity change is on record?
**A.** The activity change was inactive: 7.23%.

**Q.** Which activity change does the source give for `CCOc1ccc2[nH]c3c(NCCN(CC)CC)ncnc3c2c1` here?
**A.** The activity change was active: -96.1%.

**Q.** Which activity change does the source give for `COc1ccc2nc(C)cc(SCC(=O)N3CCCCC3)c2c1` here?
**A.** Its activity change is inconclusive: -45.9%.

**Q.** Which activity change does the source give for `O=C1CC(c2ccc3c(c2)OCCO3)Oc2ccc([N+](=O)[O-])cc21` (stereo unspecified) here?
**A.** Its activity change is active: -68.5%.

**Q.** Which activity change does the source give for `COc1ccc(OCC(=O)N2CCN(c3nnc(-c4ccccc4)c4ccccc34)CC2)cc1` here?
**A.** The activity change was active: -65.8%.

**Q.** For `Cc1nc(N2CCCCC2)[nH]c(=O)c1CN(C)N=O`, which activity change is on record?
**A.** The activity change was inconclusive: -41.1%.

**Q.** For `CCn1c(=O)c2cc(S(=O)(=O)NCc3ccccc3)ccc2n(CC)c1=O`, which activity change is on record?
**A.** Its activity change is inactive: 28.2%.

**Q.** For `O=C(CN(c1ccc(Cl)c(C(F)(F)F)c1)S(=O)(=O)c1ccccc1)N/N=C/c1cccc2c1OCCO2`, which activity change is on record?
**A.** The activity change was inconclusive: -42.7%.

**Q.** Which activity change does the source give for `COc1cc(C2=NOC(C(=O)NCc3cccs3)C2)cc(OC)c1OC` (stereo unspecified) here?
**A.** The activity change was inactive: 0%.

**Q.** Which activity change does the source give for `COC(=O)[C@]1(C)CCC[C@@]2(C)C3CC[C@@]4(C)C[C@]3(CCC21)CC(=O)N4Cc1ccc(OC)cc1` (stereo partly specified) here?
**A.** The activity change was inconclusive: -49.7%.

**Q.** With `COc1cccc(OC)c1C(=O)Nc1ccc(C)cc1C(=O)c1ccccc1` as the molecule, how does the activity change read?
**A.** The activity change was inconclusive: -40.1%.

**Q.** For `COc1ccc2c(c1OC)C(=O)OC2CC(=O)c1ccc(N(C)C)cc1` (stereo unspecified), which activity change is on record?
**A.** The activity change was inactive: 3.39%.

**Q.** For `CCCCCCC[N+](CC)(CC)CCCCc1ccc(Cl)cc1`, which activity change is on record?
**A.** Its activity change is inconclusive: -46.9%.

**Q.** With `CC1=C(C(=O)OCc2ccccc2)C(c2ccccc2Br)NC(=O)N1` (stereo unspecified) as the molecule, how does the activity change read?
**A.** Its activity change is active: -72.4%.

**Q.** Which activity change does the source give for `CCC(C)C1C(C#N)=C(N)Oc2n[nH]c(C)c21` (stereo unspecified) here?
**A.** The activity change was active: -71.6%.

**Q.** For `O=C(CCS(=O)(=O)c1ccccc1)Nc1nc2c(s1)COc1ccccc1-2`, which activity change is on record?
**A.** The activity change was inactive: -12.6%.

**Q.** Which activity change does the source give for `CCS(=O)(=O)/N=C(\N)c1ccccc1` here?
**A.** The activity change was inactive: 8.78%.

**Q.** With `COc1ccc(C2c3ccc(O)cc3Oc3ncn(CCN4CCOCC4)c(=N)c32)cc1` (stereo unspecified) as the molecule, how does the activity change read?
**A.** Its activity change is inconclusive: -42.2%.

**Q.** For `COc1ccc(Cl)cc1NC(=O)CNc1ccccc1CN(C)C1CCCCC1`, which activity change is on record?
**A.** Its activity change is active: -214%.

**Q.** Which activity change does the source give for `CSc1ccccc1CNC(=O)C1(C)CCCN1CC(C)C` (stereo unspecified) here?
**A.** The activity change was inactive: 23.7%.

**Q.** For `Cc1ccc(NC2c3ncccc3C(=O)N2Cc2cccs2)cc1` (stereo unspecified), which activity change is on record?
**A.** The activity change was inactive: 0%.

**Q.** With `CC(=O)N(C)c1ccc(NC(=S)Nc2ccccc2)cc1` as the molecule, how does the activity change read?
**A.** The activity change was inactive: -4.58%.

**Q.** For `COc1ccccc1/C=C/C=C1\Oc2c(ccc(O)c2CN2CCN(CCO)CC2)C1=O`, which activity change is on record?
**A.** The activity change was inconclusive: -36.5%.

**Q.** For `Cc1ccc(NC(=O)COC(=O)c2ccc3c(c2)OCCO3)cc1`, which activity change is on record?
**A.** The activity change was inactive: 8.92%.

**Q.** Which activity change does the source give for `O=C(CN1C(=O)NC(Cc2c[nH]c3ccccc23)C1=O)Nc1ccc(Br)cc1F` (stereo unspecified) here?
**A.** The activity change was inconclusive: -30.3%.

**Q.** With `Cc1ccccc1C(=O)N1CCN(c2ccc(NC(=O)c3cccnc3Cl)cc2)CC1` as the molecule, how does the activity change read?
**A.** The activity change was inconclusive: -49.2%.

**Q.** Which activity change does the source give for `Cc1ccc(S(=O)(=O)NC(CC(C)C)C(=O)Oc2ccc3c4c(c(=O)oc3c2)CCC4)cc1` (stereo unspecified) here?
**A.** The activity change was inconclusive: -38.4%.

**Q.** With `Cc1nn(Cc2ccccc2Cl)c(C)c1NC(=O)c1nc2ncccn2n1` as the molecule, how does the activity change read?
**A.** Its activity change is inactive: 9.26%.

**Q.** Which activity change does the source give for `CC1(C)C(=O)Nc2ccccc2N1C(=O)CSc1nc(-c2ccccc2)cs1` here?
**A.** Its activity change is inconclusive: -39.3%.

**Q.** Which activity change does the source give for `Cc1ccc(N2CC(C(=O)Nc3nccs3)CC2=O)cc1Cl` (stereo unspecified) here?
**A.** The activity change was inactive: -23.6%.

**Q.** Which activity change does the source give for `Cc1ccc(C(=O)N2CCN(c3ccc([N+](=O)[O-])c(NCc4cccnc4)c3)CC2)cc1` here?
**A.** Its activity change is inconclusive: -42.9%.

**Q.** With `CCC(C(=O)N1CCc2cc(OC)c(OC)cc2C1)c1ccccc1` (stereo unspecified) as the molecule, how does the activity change read?
**A.** Its activity change is inconclusive: -34.3%.

**Q.** Which activity change does the source give for `Cc1ccc(NC(=O)C2=CCN(S(=O)(=O)c3ccc(F)cc3)CC2)cc1` here?
**A.** Its activity change is inconclusive: -34.1%.

**Q.** With `Cc1ccc(NC(=O)c2cc(S(=O)(=O)N3CCOCC3)ccc2F)c(C)c1` as the molecule, how does the activity change read?
**A.** Its activity change is inconclusive: -32.8%.

**Q.** Which activity change does the source give for `COc1cc(C)c(NC(=O)C(=S)NCCc2ccccc2)cc1C` here?
**A.** The activity change was inconclusive: -38.8%.

**Q.** With `CCN(CC)S(=O)(=O)c1cccc(NC(=O)COC(=O)c2cccs2)c1` as the molecule, how does the activity change read?
**A.** The activity change was inactive: -11.5%.

**Q.** Which activity change does the source give for `COc1cc(-c2cc(-c3nnco3)c3ccccc3n2)cc(OC)c1OC` here?
**A.** The activity change was inconclusive: -42.7%.

**Q.** With `CC(C)C[C@H]1CNC(=O)C(=O)N1CC1CCN(CC2CCC(C(C)(C)C)CC2)CC1` (stereo partly specified) as the molecule, how does the activity change read?
**A.** The activity change was inconclusive: -31.3%.

**Q.** With `CCc1ccc(NC(=O)CCc2nnc3ccc(N4CCC5(CC4)OCCO5)nn23)cc1` as the molecule, how does the activity change read?
**A.** Its activity change is inactive: -2.79%.

**Q.** Which activity change does the source give for `Cc1nc(C(=O)Nc2ccccc2)sc1C1(C)CC(c2cccnc2)=NO1` (stereo unspecified) here?
**A.** Its activity change is inactive: 25.9%.

**Q.** With `CC[C@@]12C(=O)N(c3ccc(OC)cc3)C(=O)N1[C@H](c1ccc(Cl)cc1)[C@@H]1C(=O)N(C3CCCCC3)C(=O)[C@@H]12` as the molecule, how does the activity change read?
**A.** The activity change was inconclusive: -39.7%.
